Reference: the supplement of paper PMC8728848
Some of the results follow.

Experiments:
Assay in all cases: glycan array binding signal (z-score within array); higher = stronger binding
Conditions in all cases: glycan notation: IUPAC condensed, linker removed
Fuc(b1-3)GlcNAc = target: Fuc(b1-3)GlcNAc
Procedure, shortened: (§1)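 Columns mapping to the same glycan were averaged after glycan names were converted to IUPAC-condensed notation. The data come from 3228 arrays in the Consortium for Functional Glycomics database, limited to those with an available protein sequence. Binding is reported as a within-array Z-score averaged across arrays of one protein sequence and across linkers.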

Gal(a1-2)Gal = target: Gal(a1-2)Gal
Procedure, shortened: as §1

Gal(a1-3)Gal = target: Gal(a1-3)Gal
Procedure, shortened: as §1

Gal(a1-3)Gal(b1-3)GlcNAc = target: Gal(a1-3)Gal(b1-3)GlcNAc
Procedure, shortened: as §1

[1] = target: Gal(a1-3)Gal(b1-3)GlcNAc(b1-2)Man
Procedure, shortened: as §1

[2] = target: Gal(a1-3)Gal(b1-3)GlcNAc(b1-2)Man(a1-3)[Gal(a1-3)Gal(b1-3)GlcNAc(b1-2)Man(a1-6)]Man(b1-4)GlcNAc(b1-4)GlcNAc
Procedure, shortened: as §1

[3] = target: Gal(a1-3)Gal(b1-3)GlcNAc(b1-3)GalNAc
Procedure, shortened: as §1

[4] = target: Gal(a1-3)Gal(b1-3)GlcNAc(b1-6)GalNAc
Procedure, shortened: as §1

[5] = target: Gal(a1-3)Gal(b1-3)[Fuc(a1-4)]GlcNAc(b1-2)Man(a1-3)[Gal(a1-3)Gal(b1-3)[Fuc(a1-4)]GlcNAc(b1-2)Man(a1-6)]Man(b1-4)GlcNAc(b1-4)GlcNAc
Procedure, shortened: as §1

Gal(a1-3)Gal(b1-4)Glc = target: Gal(a1-3)Gal(b1-4)Glc
Procedure, shortened: as §1

Gal(a1-3)Gal(b1-4)GlcNAc = target: Gal(a1-3)Gal(b1-4)GlcNAc
Procedure, shortened: as §1

[6] = target: Gal(a1-3)Gal(b1-4)GlcNAc(b1-2)Man
Procedure, shortened: as §1

[7] = target: Gal(a1-3)Gal(b1-4)GlcNAc(b1-2)Man(a1-3)[Gal(a1-3)Gal(b1-4)GlcNAc(b1-2)Man(a1-6)]Man(b1-4)GlcNAc(b1-4)GlcNAc
Procedure, shortened: as §1

[8] = target: Gal(a1-3)Gal(b1-4)GlcNAc(b1-3)GalNAc
Procedure, shortened: as §1

[9] = target: Gal(a1-3)Gal(b1-4)GlcNAc(b1-6)GalNAc
Procedure, shortened: as §1

[10] = target: Gal(a1-3)Gal(b1-4)[Fuc(a1-3)]GlcNAc
Procedure, shortened: as §1

[11] = target: Gal(a1-3)Gal(b1-4)[Fuc(a1-3)]GlcNAc(b1-2)Man(a1-3)[Gal(a1-3)Gal(b1-4)[Fuc(a1-3)]GlcNAc(b1-2)Man(a1-6)]Man(b1-4)GlcNAc(b1-4)GlcNAc
Procedure, shortened: as §1

Gal(a1-3)GalNAc = target: Gal(a1-3)GalNAc
Procedure, shortened: as §1

[12] = target: Gal(a1-3)[Gal(a1-4)]Gal(b1-4)GlcNAc
Procedure, shortened: as §1

[13] = target: Gal(a1-4)Gal(b1-3)GlcNAc(b1-2)Man(a1-3)[Gal(a1-4)Gal(b1-3)GlcNAc(b1-2)Man(a1-6)]Man(b1-4)GlcNAc(b1-4)GlcNAc
Procedure, shortened: as §1

Gal(a1-4)Gal(b1-4)Glc = target: Gal(a1-4)Gal(b1-4)Glc
Procedure, shortened: as §1

Gal(a1-4)Gal(b1-4)GlcNAc = target: Gal(a1-4)Gal(b1-4)GlcNAc
Procedure, shortened: as §1

[14] = target: Gal(a1-4)Gal(b1-4)GlcNAc(b1-2)Man(a1-3)[Gal(a1-4)Gal(b1-4)GlcNAc(b1-2)Man(a1-6)]Man(b1-4)GlcNAc(b1-4)GlcNAc
Procedure, shortened: as §1

[15] = target: Gal(a1-4)Gal(b1-4)GlcNAc(b1-3)Gal(b1-4)Glc
Procedure, shortened: as §1

Gal(a1-4)GlcNAc = target: Gal(a1-4)GlcNAc
Procedure, shortened: as §1

Gal(a1-6)Glc = target: Gal(a1-6)Glc
Procedure, shortened: as §1

Gal(b1-2)Gal = target: Gal(b1-2)Gal
Procedure, shortened: as §1

Gal(b1-3)Gal = target: Gal(b1-3)Gal
Procedure, shortened: as §1

Gal(b1-3)Gal(b1-4)GlcNAc = target: Gal(b1-3)Gal(b1-4)GlcNAc
Procedure, shortened: as §1

[16] = target: Gal(b1-3)Gal(b1-4)GlcNAc(b1-2)Man(a1-3)[Gal(b1-3)Gal(b1-4)GlcNAc(b1-2)Man(a1-6)]Man(b1-4)GlcNAc(b1-4)GlcNAc
Procedure, shortened: as §1

Gal(b1-3)GalNAc = target: Gal(b1-3)GalNAc
Procedure, shortened: as §1

[17] = target: Gal(b1-3)GalNAc(a1-3)[Fuc(a1-2)]Gal(b1-4)Glc
Procedure, shortened: as §1

[18] = target: Gal(b1-3)GalNAc(a1-3)[Fuc(a1-2)]Gal(b1-4)GlcNAc
Procedure, shortened: as §1

Gal(b1-3)GalNAc(b1-3)Gal = target: Gal(b1-3)GalNAc(b1-3)Gal
Procedure, shortened: as §1

[19] = target: Gal(b1-3)GalNAc(b1-3)Gal(a1-4)Gal(b1-4)Glc
Procedure, shortened: as §1

[20] = target: Gal(b1-3)GalNAc(b1-4)Gal(b1-4)Glc
Procedure, shortened: as §1

[21] = target: Gal(b1-3)GalNAc(b1-4)[Neu5Ac(a2-3)]Gal(b1-4)Glc
Procedure, shortened: as §1

Gal(b1-3)GlcNAc = target: Gal(b1-3)GlcNAc
Procedure, shortened: as §1

[22] = target: Gal(b1-3)GlcNAc(a1-3)Gal(b1-4)GlcNAc
Procedure, shortened: as §1

[23] = target: Gal(b1-3)GlcNAc(a1-6)Gal(b1-4)GlcNAc
Procedure, shortened: as §1

Gal(b1-3)GlcNAc(b1-2)Man = target: Gal(b1-3)GlcNAc(b1-2)Man
Procedure, shortened: as §1

[24] = target: Gal(b1-3)GlcNAc(b1-2)Man(a1-3)[Gal(b1-3)GlcNAc(b1-2)Man(a1-6)]Man(b1-4)GlcNAc(b1-4)GlcNAc
Procedure, shortened: as §1

[25] = target: Gal(b1-3)GlcNAc(b1-2)Man(a1-3)[Gal(b1-3)GlcNAc(b1-2)Man(a1-6)]Man(b1-4)GlcNAc(b1-4)[Fuc(a1-6)]GlcNAc
Procedure, shortened: as §1

[26] = target: Gal(b1-3)GlcNAc(b1-2)Man(a1-3)[GlcNAc(b1-4)][Gal(b1-3)GlcNAc(b1-2)Man(a1-6)]Man(b1-4)GlcNAc(b1-4)GlcNAc
Procedure, shortened: as §1

[27] = target: Gal(b1-3)GlcNAc(b1-2)[Gal(b1-3)GlcNAc(b1-6)]Man(a1-6)[Gal(b1-3)GlcNAc(b1-2)Man(a1-3)]Man(b1-4)GlcNAc(b1-4)GlcNAc
Procedure, shortened: as §1

B1: HPA (Helix pomatia), Q2F1K8 (protein)
chain: MQAFYSGLLLLCVVAFAAAQRVQSGKIDCGNDAGWAKVPSDDPGRDNTRELAKNITFASPYCRPPVVLLSITQLDVEQSQNLRVIARLYSVSPTGFKASCYTWHNTKVYSMSISWISIENY
glycan array binding signal (z-score) (Fuc(b1-3)GlcNAc): -0.219 | glycan array binding signal (z-score) (Gal(a1-2)Gal): -0.187 | glycan array binding signal (z-score) (Gal(a1-3)Gal): -0.35 | glycan array binding signal (z-score) (Gal(a1-3)Gal(b1-3)GlcNAc): -0.213 | glycan array binding signal (z-score) [1]: -0.389 | glycan array binding signal (z-score) [2]: 0 | glycan array binding signal (z-score) [3]: -0.108 | glycan array binding signal (z-score) [4]: -0.17 | glycan array binding signal (z-score) [5]: 0.104 | glycan array binding signal (z-score) (Gal(a1-3)Gal(b1-4)Glc): -0.125 | glycan array binding signal (z-score) (Gal(a1-3)Gal(b1-4)GlcNAc): -0.224 | glycan array binding signal (z-score) [6]: -0.228 | glycan array binding signal (z-score) [7]: 0.004 | glycan array binding signal (z-score) [8]: -0.167 | glycan array binding signal (z-score) [9]: -0.173 | glycan array binding signal (z-score) [10]: -0.235 | glycan array binding signal (z-score) [11]: 0.037 | glycan array binding signal (z-score) (Gal(a1-3)GalNAc): -0.188 | glycan array binding signal (z-score) [12]: -0.147 | glycan array binding signal (z-score) [13]: -0.186 | glycan array binding signal (z-score) (Gal(a1-4)Gal(b1-4)Glc): 0.015 | glycan array binding signal (z-score) (Gal(a1-4)Gal(b1-4)GlcNAc): -0.114 | glycan array binding signal (z-score) [14]: -0.101 | glycan array binding signal (z-score) [15]: -0.222 | glycan array binding signal (z-score) (Gal(a1-4)GlcNAc): -0.263 | glycan array binding signal (z-score) (Gal(a1-6)Glc): -0.127 | glycan array binding signal (z-score) (Gal(b1-2)Gal): -0.074 | glycan array binding signal (z-score) (Gal(b1-3)Gal): -0.159 | glycan array binding signal (z-score) (Gal(b1-3)Gal(b1-4)GlcNAc): -0.291 | glycan array binding signal (z-score) [16]: -1.16 | glycan array binding signal (z-score) (Gal(b1-3)GalNAc): 0.332 | glycan array binding signal (z-score) [17]: 0.102 | glycan array binding signal (z-score) [18]: -0.604 | glycan array binding signal (z-score) (Gal(b1-3)GalNAc(b1-3)Gal): -0.375 | glycan array binding signal (z-score) [19]: -0.093 | glycan array binding signal (z-score) [20]: -0.188 | glycan array binding signal (z-score) [21]: -0.291 | glycan array binding signal (z-score) (Gal(b1-3)GlcNAc): -0.166 | glycan array binding signal (z-score) [22]: -0.453 | glycan array binding signal (z-score) [23]: -0.214 | glycan array binding signal (z-score) (Gal(b1-3)GlcNAc(b1-2)Man): -0.119 | glycan array binding signal (z-score) [24]: 0.022 | glycan array binding signal (z-score) [25]: -0.15 | glycan array binding signal (z-score) [26]: -0.092 | glycan array binding signal (z-score) [27]: -0.35
